Assay results from ChEMBL document CHEMBL1201862, “PubChem BioAssay data set” (2004).
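Protocol summary: plate cells (96-well), add compound at 5 concentrations, incubate 48 h, interpolate endpoints linearly. GI50 = concentration required for 50% inhibition of growth.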 Active and inactive are the calls of the source. No stated cut-off is given here; in the data, active = GI50 up to about 1.1 µM and inactive = higher.

What follows are compounds tested on NCI-H322M (assay: NCI-60 cell line screen, 48 h).
`NC1=NS(=O)(=O)Nc2nc(-c3ccc(Cl)cc3)c(-c3ccc(Cl)cc3)nc21` was tested, and the GI50 was inactive: > 100 µM. In the case of `COCN/C(N)=N/C#N`, the GI50 is reported as inactive: > 100 µM. For `COc1ccc(/C=C(\NC(=O)c2ccccc2)C(=O)NN(C)c2ccnc3cc(Cl)ccc23)cc1OC`, the GI50 was inactive: 41.7 µM. In the case of `C/C(CC(O)(/C=N/O)c1ccccc1)=N/O` (configuration not stated), the GI50 is reported as inactive: 30 µM. With `CCn1c2c(n(CC)c1=S)-c1c(n(CC)c(=S)n1CC)SSSS2` the GI50 was inactive: > 74.5 µM. `CCOc1ccc(/C=C/C(=O)c2sc(NNC(C)=O)nc2C)cc1` was tested, and the GI50 was inactive: > 100 µM. With `CCOC(=O)NC(=O)c1cn(CCN2CCN(C(=O)NCCCCCCNC(=O)N3CCN(CCn4cc(C(=O)NC(=O)OCC)c(=O)[nH]c4=O)CC3)CC2)c(=O)[nH]c1=O` the GI50 was inactive: > 100 µM. In the case of `CC(C)=CCN1c2ccccc2NC(=O)CC1C` (configuration not stated), the GI50 is reported as inactive: > 100 µM. In the case of `Cc1c(Cl)c2ccccc2n1S(=O)(=O)c1ccccc1`, the GI50 is reported as inactive: > 100 µM. In the case of `CCOC(=O)/C1=C(\C)N(c2ccc(C)cc2)C(=O)c2ccccc2C(=O)c2c(O)ccc(O)c21`, the GI50 is reported as inactive: 24.3 µM. In the case of `COc1ccc(S(=O)(=O)NC(CCC(=O)NC(N)=O)C(=O)NC(N)=O)cc1` (configuration not stated), the GI50 is reported as inactive: > 100 µM. `COc1cc(C2SCCCCCCCCCCSC(c3ccc(O)c(OC)c3)SCCCCCCCCCCS2)ccc1O` (configuration not stated) was tested, and the GI50 was inactive: > 100 µM. `O=C(NC1C2CC3CC(C2)CC1C3)/C(Cl)=C1/Sc2ccccc2NC1=O` (configuration not stated) was tested, and the GI50 was inactive: > 100 µM. With `C=CCOC1OC(CO[Si](C)(C)C(C)(C)C)C(OCc2ccccc2)C(OCc2ccccc2)C1OCc1ccccc1` (configuration not stated) the GI50 was inactive: 54.5 µM. In the case of `COc1cc(C2=C(C)[C@@H]3CN(CC=C3c3ccc(Cl)cc3)C2)c(S(=O)(=O)O)cc1OC`, the GI50 is reported as inactive: > 100 µM. For `CCCCCCCC(=O)OCC(C[As](=O)(O)O)OC(=O)CCCCCCC` (configuration not stated), the GI50 was inactive: 15.8 µM. In the case of `O=C1NC(=O)C(C(=O)C(=O)Nc2ccc(Cl)cc2Cl)C(=O)N1`, the GI50 is reported as inactive: > 100 µM. For `Cc1ccc(S(=O)(=O)n2cc(/C=C/C#N)c(/C=C/C#N)c2)cc1`, the GI50 was inactive: > 100 µM. In the case of `COC(=O)C(Cc1c(-c2[nH]c3ccccc3c2CC(NC(C)=O)C(=O)OC)[nH]c2ccccc12)NC(C)=O` (configuration not stated), the GI50 is reported as inactive: > 100 µM. In the case of `O=C(O)c1ccccc1CC1Cc2cc3c(cc2C1)CCC3`, the GI50 is reported as inactive: > 100 µM. `COc1ccc(NC(=O)C2=C(SC)C(C#N)C(=O)N=C2N)cc1` (configuration not stated) was tested, and the GI50 was inactive: > 100 µM. `Cc1c(Cl)ccc2[s+]snc12` was tested, and the GI50 was inactive: 94.4 µM. With `C=CCn1c(-c2ccccc2)cs/c1=N\C(P(=O)(O)O)P(=O)(O)O` the GI50 was inactive: > 100 µM. In the case of `C=CCNC1=C2C[C@@H](C)C[C@@H](OC)[C@H](OC(=O)CN)[C@H](C)/C=C(\C)[C@@H](OC(N)=O)[C@H](OC)/C=C\C=C(/C)C(=O)NC(=CC1=O)C2=O`, the GI50 is reported as inactive: 2.6 µM. `C=C(C)CNC(=S)N(N)c1ccc(OC)cc1` was tested, and the GI50 was inactive: > 100 µM. With `O=c1c2ccccc2oc2ccccc12.Oc1cccc2cccnc12` the GI50 was inactive: 54.2 µM. With `NC(CCSCC(F)(F)F)C(=O)O` (configuration not stated) the GI50 was inactive: > 100 µM. `COC(=O)[C@]1(CCC(C)=O)C(=O)C=CN([C@H](C)c2ccccc2)[C@@H]1Cc1ccc(OC)c(OCc2ccccc2)c1I` was tested, and the GI50 was inactive: 23.1 µM. In the case of `CS(=O)(=O)Sc1ccc(Cl)cc1`, the GI50 is reported as inactive: 9.95 µM. With `CC1(C)OC2C(=O)OC(COCc3ccccc3)C2O1` (configuration not stated) the GI50 was inactive: > 100 µM. In the case of `Cc1cc(NS(=O)(=O)c2ccc(Nc3c4ccccc4nc4c(C(=O)NCCN(C)C)cccc34)cc2)no1`, the GI50 is reported as inactive: 9.48 µM. With `O=C1CC(Nc2ccccc2)c2c(Cl)sc(Cl)c21` (configuration not stated) the GI50 was inactive: 5.68 µM. With `CCCCCCCCCCCCCCCCOCC(COP(=O)(O)OCC1OC(n2cc(CC)c(=O)[nH]c2=O)CC1O)OC(=O)CCCCCCCCCCCCCCC` (configuration not stated) the GI50 was inactive: > 100 µM. `CSc1nc(Nc2cccc(C(F)(F)F)c2)c2c(N)nn(C)c2n1` was tested, and the GI50 was inactive: > 100 µM. In the case of `COC(=O)C12OC3CO[Si](C(C)C)(C(C)C)O[Si](C(C)C)(C(C)C)OC3C1Oc1nc(=O)ccn12` (configuration not stated), the GI50 is reported as inactive: 16.7 µM. `Clc1ccc(Cc2nc3ccccc3nc2-c2cccc(Cl)c2)cc1` was tested, and the GI50 was inactive: 14.6 µM. In the case of `CCOc1ccc(/N=C/c2c3ccccc3nc3ccccc23)cc1`, the GI50 is reported as inactive: 98.9 µM. In the case of `CC1=Nc2c(ccc3c2C(=O)c2ccccc2C3=O)NC(c2cccc3c2CCC3)C1` (configuration not stated), the GI50 is reported as inactive: 18.2 µM. With `CNS(=O)(=O)NN(C)S(=O)(=O)c1ccc(OC)cc1` the GI50 was inactive: > 100 µM. `O=C1CSC(c2cccc(Oc3ccccc3)c2)N1c1cc(Cl)ccc1Cl` (configuration not stated) was tested, and the GI50 was inactive: 39.8 µM. With `NC(=O)c1cccc(C2OC(COP(=O)(O)O)C(O)C2O)c1` (configuration not stated) the GI50 was inactive: > 50 µM. For `Cc1ccc(C(=O)Nc2ccc(S(=O)(=O)O)c3cc(S(=O)(=O)O)cc(S(=O)(=O)O)c23)cc1NC(=O)c1cccc(N)c1`, the GI50 was inactive: > 100 µM. `CC1(C)C2CCC3=C(CCC4(C)C5C[C@](C)(C(=O)O)CC[C@]5(C)CC[C@]34C)[C@@]2(C)CC[C@@H]1O` (some centres not stated) was tested, and the GI50 was inactive: 18.5 µM. For `OC[C@H]1NC[C@@H](O)[C@@H](O)[C@H]1O`, the GI50 was inactive: > 100 µM. `Cc1cc(-c2nc3ccccc3s2)ccc1NS(=O)(=O)O` was tested, and the GI50 was inactive: > 34.4 µM. In the case of `CCN1/C(=C/c2ccc3ccccc3[n+]2CC)C=Cc2ccccc21`, the GI50 is reported as active: 0.494 µM. For `O=C1C[C@H](c2ccccc2)C2(C(=O)c3ccccc3C2=O)[C@H](c2ccccc2)C1`, the GI50 was inactive: > 100 µM.
